Data from PMC4336329 (PLoS ONE, 2015).
In all, about 310,000 compounds went through this assay and about 14,000 (4.5%) showed an effect of 50% or more. The effect is printed as a negative number. Some of the results follow.

These molecules were tested against human ether-à-go-go-related gene (hERG) potassium channel (human, UniProt Q12809) (assay: primary screen, population patch clamp on CHO cells stably expressing hERG).
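Note: peak tail current of the secondary pulse compared with the same well before compound.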

Sequence of human ether-à-go-go-related gene (hERG) potassium channel (Q12809 whole entry, looked up): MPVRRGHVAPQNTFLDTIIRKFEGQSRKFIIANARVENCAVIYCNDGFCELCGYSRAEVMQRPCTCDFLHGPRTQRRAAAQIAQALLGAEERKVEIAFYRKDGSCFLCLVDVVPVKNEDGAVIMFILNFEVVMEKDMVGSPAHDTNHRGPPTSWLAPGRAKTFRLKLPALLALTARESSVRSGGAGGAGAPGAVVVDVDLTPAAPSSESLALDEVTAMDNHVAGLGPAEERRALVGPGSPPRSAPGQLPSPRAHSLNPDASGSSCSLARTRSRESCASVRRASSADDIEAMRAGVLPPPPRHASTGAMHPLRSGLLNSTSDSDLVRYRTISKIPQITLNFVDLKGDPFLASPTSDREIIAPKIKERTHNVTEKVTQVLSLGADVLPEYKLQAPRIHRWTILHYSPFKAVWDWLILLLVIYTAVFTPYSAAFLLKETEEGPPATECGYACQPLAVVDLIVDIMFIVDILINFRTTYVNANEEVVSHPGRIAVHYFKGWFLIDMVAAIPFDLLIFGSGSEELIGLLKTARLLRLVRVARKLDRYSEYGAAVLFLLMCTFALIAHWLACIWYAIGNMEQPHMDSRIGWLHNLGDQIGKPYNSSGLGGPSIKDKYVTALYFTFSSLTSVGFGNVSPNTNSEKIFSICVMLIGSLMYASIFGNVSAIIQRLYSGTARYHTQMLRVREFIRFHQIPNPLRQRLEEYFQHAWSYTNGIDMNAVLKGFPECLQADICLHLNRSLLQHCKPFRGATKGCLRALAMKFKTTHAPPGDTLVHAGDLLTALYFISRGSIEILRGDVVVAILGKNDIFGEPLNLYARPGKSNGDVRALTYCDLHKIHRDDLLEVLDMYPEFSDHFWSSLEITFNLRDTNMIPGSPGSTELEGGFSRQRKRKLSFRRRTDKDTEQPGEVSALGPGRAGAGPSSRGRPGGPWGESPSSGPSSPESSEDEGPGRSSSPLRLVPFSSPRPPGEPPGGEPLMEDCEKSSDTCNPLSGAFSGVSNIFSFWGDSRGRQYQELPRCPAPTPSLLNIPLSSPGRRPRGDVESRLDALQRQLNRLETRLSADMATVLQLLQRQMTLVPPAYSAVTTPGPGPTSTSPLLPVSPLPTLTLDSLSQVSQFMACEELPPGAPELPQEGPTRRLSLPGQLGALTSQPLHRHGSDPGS

Compared with `Cc1nnc(NC(=O)c2nc(S(=O)(=O)Cc3ccccc3C)ncc2Cl)s1`, `Cc1nnc(NC(=O)CSc2nnc(C)c(=O)n2N)s1` is lower in “hERG current change (%, negative = inhibition) at 10uM” value: 20.3% for the first, 1.97% for the second.

Going from `Cl.O=C(NCCN1CCCC1)c1ccc(Cl)cc1` to `O=C1CN(c2ccc(Cl)cc2)C2(CCCCC2)S1`, the “hERG current change (%, negative = inhibition) at 10uM” value rises from -15.3% to 4.49%.

First: CN(C)C(=O)COc1ccc2c3c(c(=O)oc2c1)CCCC3
Second: CCOC(=O)Cn1c(=O)oc2cc(S(=O)(=O)NC3CCCCC3)ccc21
The “hERG current change (%, negative = inhibition) at 10uM” value of the first is higher: 14.6% for the first, 4.56% for the second.

Compared with `Cc1ccc(S(=O)(=O)Oc2ccc(/C=C3/C(=N)N4C(=NC3=O)SN=C4S(C)(=O)=O)cc2)cc1`, `Cc1ccc(OCc2ccc(C(=O)Nc3ccc(S(N)(=O)=O)cc3)o2)cc1` is higher in “hERG current change (%, negative = inhibition) at 10uM” value: 9.53% for the first, 12.4% for the second.

First: CCN(CC)CCn1c2c(c(SCC(=O)Nc3ccc(F)c(F)c3)nc1=O)CCC2
Second: CCCCn1nnnc1SCC(=O)Nc1ccc2c(c1)OCCO2
The “hERG current change (%, negative = inhibition) at 10uM” value of the first is lower: -70.5% for the first, 4.94% for the second.

First: COc1cc(/C=N/NC(=O)c2cccnc2)cc2c1OCO2
Second: COc1cccc(C(=O)Nc2ccc(C(F)(F)F)n(C)c2=O)c1
The “hERG current change (%, negative = inhibition) at 10uM” value of the first is higher: 10.7% for the first, 8.2% for the second.

Going from `CCC(C)(C)NC(=O)CN(Cc1ccccc1Cl)C(=O)CCC(=O)Nc1cc(C)ccn1` to `O=C(CCS(=O)(=O)Cc1ccccc1F)NCCc1ccc(Cl)cc1`, the “hERG current change (%, negative = inhibition) at 10uM” value falls from -4.7% to -40%.

First: O=c1c2ccccc2nnn1Cc1cccc2ccccc12
Second: Cl.Oc1cccc(Nc2c3ccccc3nc3ccccc23)c1
The “hERG current change (%, negative = inhibition) at 10uM” value of the first is higher: -1.1% for the first, -17.6% for the second.

Going from `CCOc1ccc(CNn2nnnc2N)cc1` to `CCOc1ccc(NC(=O)CC(c2ccccc2)c2ccc(F)cc2)cc1` (stereo not shown), the “hERG current change (%, negative = inhibition) at 10uM” value rises from -6.35% to 18.4%.

Going from `CC1(C)CC(=O)C(N=Nc2ccc3ncsc3c2)=C(O)C1` to `Nc1nc2ccc(O)cc2s1`, the “hERG current change (%, negative = inhibition) at 10uM” value falls from -3.67% to -9.85%.

First: CCOc1ccccc1NC(=O)c1c(Br)cnn1C
Second: O=C(O)c1ccccc1C(=O)Nc1ccc(Br)c2cccnc12
The “hERG current change (%, negative = inhibition) at 10uM” value of the first is lower: 1.22% for the first, 14.5% for the second.

Compared with `COc1cccc(C(=O)Nc2cc(C)c3c(=O)oc4ccccc4c3n2)c1`, `Cc1onc(-c2ccccc2)c1CNC(=O)Nc1cccc(Cl)c1` is lower in “hERG current change (%, negative = inhibition) at 10uM” value: 5.5% for the first, -18.4% for the second.

First: CCSc1nnc(NC(=O)c2cc3c(s2)CCCC3)s1
Second: CC1CCc2sc(C(=O)Nc3nnc(SCc4ccc(F)cc4)s3)cc2C1 (stereo not shown)
The “hERG current change (%, negative = inhibition) at 10uM” value of the first is lower: 5.22% for the first, 14.9% for the second.

First: CS(=O)(=O)N(Cc1ccc(C(=O)NCCSCc2ccco2)cc1)c1ccccc1
Second: COc1ccc(C(=O)NC(=S)NCCc2ccccc2)cc1
The “hERG current change (%, negative = inhibition) at 10uM” value of the first is lower: -7.95% for the first, -7.05% for the second.

First: CC(c1ccccc1)n1cc(C(=O)NCC2CCCO2)nn1 (stereo not shown)
Second: O=C(c1ccc2oc(CCCc3ccccc3)nc2c1)N1CCCC1
The “hERG current change (%, negative = inhibition) at 10uM” value of the first is lower: 7.46% for the first, 17.5% for the second.

Compared with `O=C1/C(=C\Nc2ccc(Cl)cc2)CCN1c1ncccn1`, `Clc1ccc(CSc2nccn2Cc2ccccc2)cc1` is higher in “hERG current change (%, negative = inhibition) at 10uM” value: -27% for the first, -6.43% for the second.

Compared with `c1ccc2[nH]c3cc4ncnc4cc3nc2c1`, `O=c1c(Cl)c(N2CCOCC2)cnn1-c1nc2ccccc2[nH]1` is higher in “hERG current change (%, negative = inhibition) at 10uM” value: 6.35% for the first, 14.7% for the second.

Compared with `CCOc1ccc(/C=N/NC(=S)NC2CC3CC2C2C=CCC32)cc1` (stereo not shown), `COc1ccc(NC(=O)c2ccccc2NC(=O)C2CC=CCC2C(=O)O)cc1` (stereo not shown) is higher in “hERG current change (%, negative = inhibition) at 10uM” value: 6.33% for the first, 15.6% for the second.

Going from `CN1CCN(/N=C/c2nc(-c3ccccc3Cl)n3ccccc23)CC1` to `N#Cc1c(-c2ccccc2)nc(-c2ccccc2)nc1N1CCOCC1`, the “hERG current change (%, negative = inhibition) at 10uM” value rises from -34.1% to 22%.

First: Cc1cccc(N2CCN(C(=S)NCc3ccco3)CC2)c1C
Second: CCC1Oc2ccc(C)cc2N(CC(=O)NCCC2=CCCCC2)C1=O (stereo not shown)
The “hERG current change (%, negative = inhibition) at 10uM” value of the first is higher: -5.6% for the first, -16% for the second.

Going from `NC(=O)c1ccsc1NC(=O)COC(=O)c1ccc([N+](=O)[O-])o1` to `CNC(=O)c1ccsc1NC(=O)c1coc2ccccc2c1=O`, the “hERG current change (%, negative = inhibition) at 10uM” value rises from -7.98% to 8.7%.

Going from `CCN(CC)CCCN(Cc1cc2cc3c(cc2[nH]c1=O)OCO3)C(=S)NC` to `Cc1cc(C)n2nc(SCc3cc(=O)oc4ccc5ccccc5c34)nc2n1`, the “hERG current change (%, negative = inhibition) at 10uM” value falls from 15.2% to -13.2%.

First: Cl.O=C(NC1CCN(Cc2ccccc2)CC1)c1ccccc1OCc1ccccc1
Second: Cc1ccccc1OCc1nc(-c2ccccc2)no1
The “hERG current change (%, negative = inhibition) at 10uM” value of the first is lower: -69.3% for the first, 8.35% for the second.

Compared with `O=C(Nc1ccc(Br)cc1)c1ccc(N2C(=O)C3CCCCC3C2=O)cc1` (stereo not shown), `Cc1cc(NC(=O)c2cccc(S(=O)(=O)N3CCCCC3)c2)no1` is higher in “hERG current change (%, negative = inhibition) at 10uM” value: 2.32% for the first, 9.82% for the second.

Compared with `CCc1cccc(NC(=O)CSCc2cc(=O)[nH][nH]2)c1`, `Cc1cccc(N=C2NC(=O)c3cc([N+](=O)[O-])ccc32)c1` is lower in “hERG current change (%, negative = inhibition) at 10uM” value: 5.74% for the first, 0.596% for the second.

First: O=C(NCCOCC(F)(F)C(F)F)c1cc(F)c(F)cc1Cl
Second: C=CCC1(CC=C)CCCN1C(=O)c1cc(COc2ccc(F)c(F)c2)on1
The “hERG current change (%, negative = inhibition) at 10uM” value of the first is lower: -35.3% for the first, 9.46% for the second.

First: Cc1cc(N/N=C/c2cccc(Cl)c2)nc(-n2nc(C)cc2C)n1
Second: COc1ccc(NC(=O)NNC(=O)COc2ccc3cc(Br)ccc3c2)c(OC)c1
The “hERG current change (%, negative = inhibition) at 10uM” value of the first is lower: 1.83% for the first, 19.2% for the second.

Compared with `C[C@H]1C[C@@H]2[C@H]([C@@H](O)C[C@@]3(C)[C@H]2CC[C@]3(O)C(=O)CO)[C@@]2(C)C=CC(=O)C=C12`, `Cc1cc(C)c(S(=O)(=O)N2CCCCC2CCNC(=O)C(=O)NC2CC2)c(C)c1` (stereo not shown) is lower in “hERG current change (%, negative = inhibition) at 10uM” value: 5.71% for the first, -24.4% for the second.

Going from `CC(C)Nc1nc(NC(C)C)nc(OCCOC(=O)Nc2ccccc2)n1` to `Cl.FC(F)(F)Oc1ccc(C2NCc3ccccc3-n3cccc32)cc1` (stereo not shown), the “hERG current change (%, negative = inhibition) at 10uM” value rises from -24.5% to 24.1%.
